This is an account of results in publication PMC4336329 (PLoS ONE, 2015).

SMILES strings stand for the structures. About 2,200 (0.71%) of roughly 310,000 compounds showed an effect of 50% or more. The effect is printed as a negative number. The list shows a part of the results.

The target in the test is human ether-à-go-go-related gene (hERG) potassium channel (human, UniProt Q12809). The experiment in a line: primary screen, population patch clamp on CHO cells stably expressing hERG.
human ether-à-go-go-related gene (hERG) potassium channel, sequence (Q12809 whole entry, looked up): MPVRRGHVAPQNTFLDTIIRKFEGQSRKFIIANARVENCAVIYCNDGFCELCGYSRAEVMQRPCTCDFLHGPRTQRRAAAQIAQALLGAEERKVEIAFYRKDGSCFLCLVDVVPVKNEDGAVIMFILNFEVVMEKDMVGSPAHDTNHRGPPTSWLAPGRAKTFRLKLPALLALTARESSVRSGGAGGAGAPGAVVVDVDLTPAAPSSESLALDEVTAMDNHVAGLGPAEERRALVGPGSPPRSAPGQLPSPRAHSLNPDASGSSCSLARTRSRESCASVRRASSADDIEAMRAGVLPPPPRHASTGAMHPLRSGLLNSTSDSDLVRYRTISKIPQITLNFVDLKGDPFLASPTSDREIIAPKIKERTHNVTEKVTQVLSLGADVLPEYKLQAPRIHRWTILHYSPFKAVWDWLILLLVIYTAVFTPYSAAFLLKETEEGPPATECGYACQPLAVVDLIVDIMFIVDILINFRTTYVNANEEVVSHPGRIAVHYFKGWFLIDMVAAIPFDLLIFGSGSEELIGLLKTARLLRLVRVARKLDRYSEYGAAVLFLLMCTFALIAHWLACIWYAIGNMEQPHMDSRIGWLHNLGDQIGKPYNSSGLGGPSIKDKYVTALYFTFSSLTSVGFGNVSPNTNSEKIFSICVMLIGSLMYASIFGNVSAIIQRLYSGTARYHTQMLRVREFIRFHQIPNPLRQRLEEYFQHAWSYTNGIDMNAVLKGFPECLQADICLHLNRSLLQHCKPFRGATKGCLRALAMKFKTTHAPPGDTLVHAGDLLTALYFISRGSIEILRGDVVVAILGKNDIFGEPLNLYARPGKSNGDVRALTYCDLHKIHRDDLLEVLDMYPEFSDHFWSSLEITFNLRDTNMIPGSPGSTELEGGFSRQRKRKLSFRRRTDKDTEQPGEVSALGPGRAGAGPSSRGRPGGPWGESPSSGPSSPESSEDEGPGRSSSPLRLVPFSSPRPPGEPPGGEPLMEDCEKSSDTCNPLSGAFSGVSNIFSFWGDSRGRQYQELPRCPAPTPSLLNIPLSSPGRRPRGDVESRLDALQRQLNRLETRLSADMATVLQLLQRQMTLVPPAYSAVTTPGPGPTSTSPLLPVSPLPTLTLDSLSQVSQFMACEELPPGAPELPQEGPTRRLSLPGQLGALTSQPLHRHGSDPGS
Regarding `Cc1ccsc1/C=N/NC(=O)c1ccco1`, the “hERG current change (%, negative = inhibition) at 1uM” value turned out to be 12.5%.

In the case of `CCCNS(=O)(=O)c1ccc(CCC(=O)NCCc2ccc(OC)c(OC)c2)cc1`, the “hERG current change (%, negative = inhibition) at 1uM” value came out at 17.7%.

Turning to `O=C(c1cc(-c2ccc(Cl)c(Cl)c2)on1)N1CCOCC1`, the “hERG current change (%, negative = inhibition) at 1uM” value was found to be 6.02%.

For `COc1ccc(C(=O)c2ccc([N+](=O)[O-])cc2Cl)cc1`, the “hERG current change (%, negative = inhibition) at 1uM” value was determined as 20.8%.

For the compound `CN(CC(=O)Nc1ccc(N2CCOCC2)cc1)C(=O)c1cc(S(=O)(=O)N(C)C)ccc1Cl`, the “hERG current change (%, negative = inhibition) at 1uM” value stood at 9.46%.

Turning to `O=C(C1CC(=O)N(c2ccc3c(c2)OCCO3)C1)N1CCN(Cc2ccccc2F)CC1` (centres unmarked), the “hERG current change (%, negative = inhibition) at 1uM” value came out at 9.26%.

With `S=c1[nH]ncn1/N=C/c1ccccc1`, the “hERG current change (%, negative = inhibition) at 1uM” value is reported as 14.4%.

As to `O=C(N/N=C/c1c(-c2ccccc2)[nH]c2ccccc12)c1cccnc1`, the “hERG current change (%, negative = inhibition) at 1uM” value was -1.55%.

As to `Cc1c(-c2cccs2)[n+](=O)c2c(n1[O-])CCCC2`, the “hERG current change (%, negative = inhibition) at 1uM” value was 9.21%.

On to `O=C(CNc1ccc2c(c1)OCO2)N/N=C\c1cn(Cc2ccccc2)c2ccccc12`, for which the “hERG current change (%, negative = inhibition) at 1uM” value is listed as 7.16%.

As for `O=C(NCc1cccnc1)c1ccc(S(=O)(=O)N2CCOCC2)cc1`, the “hERG current change (%, negative = inhibition) at 1uM” value came to 1.04%.

For the compound `Cc1ccc(N2C(=O)/C(=C/N3CCN(C(=O)c4ccco4)CC3)C(=O)NC2=S)cc1C`, the “hERG current change (%, negative = inhibition) at 1uM” value is 1.67%.

Consider `O=C(OCn1nnc2ccccc2c1=O)c1ccc(O)cc1`, for which the “hERG current change (%, negative = inhibition) at 1uM” value was -2.41%.

With `Cc1cccc(OCCn2c(=O)sc3ccccc32)c1`, the “hERG current change (%, negative = inhibition) at 1uM” value came to 7.72%.

Consider `CCC(C)(CC(=O)N(C)CCC#N)c1ccccc1` (centres unmarked), for which the “hERG current change (%, negative = inhibition) at 1uM” value amounted to 4.19%.

Take `N=C1/C(=C/c2coc3ccccc3c2=O)C(=O)N=C2SC(c3ccco3)=NN12`: the “hERG current change (%, negative = inhibition) at 1uM” value is 16%.

As for `COC(=O)c1cc2c(ccn2-c2ccc(F)cc2)n1Cc1cccc(OC)c1`, the “hERG current change (%, negative = inhibition) at 1uM” value is reported as 1.82%.

On to `CN(C)CCCN(C(=O)c1ccc2c(c1)CCCC2)c1nc2cc3c(cc2s1)OCO3.Cl`, for which the “hERG current change (%, negative = inhibition) at 1uM” value is on record as -17.4%.

Consider `CN(Cc1cccs1)C(=O)/C=C/c1ccccc1[N+](=O)[O-]`, for which the “hERG current change (%, negative = inhibition) at 1uM” value stood at 7.21%.

Turning to `CN1CCc2c(sc3c2C(=O)NC(c2cccc(OC(=O)c4cccs4)c2)N3)C1` (centres unmarked), the “hERG current change (%, negative = inhibition) at 1uM” value is reported as 9.1%.

`COc1ccccc1C(CNC(=O)c1cccc(S(=O)(=O)NCc2ccccc2)c1)N(C)C` (centres unmarked): the “hERG current change (%, negative = inhibition) at 1uM” value is on record as -8.9%.

As for `COc1cccc(-n2c(=S)sc3c(=O)n(-c4ccccc4C)c(SCC(=O)O)nc32)c1`, the “hERG current change (%, negative = inhibition) at 1uM” value is 17.3%.

On to `Cc1cc(C)c(S(=O)(=O)N2CCOCC2)c(C)c1N(C)S(=O)(=O)c1ccccc1`, for which the “hERG current change (%, negative = inhibition) at 1uM” value is listed as 5.19%.

Consider `O=C(Cc1ccccc1)NN1C(=O)/C(=C/c2ccc(C(=O)O)cc2)SC1=S`, for which the “hERG current change (%, negative = inhibition) at 1uM” value is listed as 16.7%.

In the case of `CNc1nnc(SCC(=O)c2cc(C)n(C3CC3)c2C)s1`, the “hERG current change (%, negative = inhibition) at 1uM” value was determined as 13.8%.

Take `CCOC(=O)c1c(C)[nH]c(C)c1C(=O)CSc1nnc(N)s1`: the “hERG current change (%, negative = inhibition) at 1uM” value came to 11.6%.

`COC(=O)c1c(-c2ccc(C(C)(C)C)cc2)csc1NC(=O)C1C2CCC(O2)C1C(=O)O` (centres unmarked): the “hERG current change (%, negative = inhibition) at 1uM” value was determined as 3.72%.

`Cc1sc2ncnc(SCC(=O)NC3CC3)c2c1C`: the “hERG current change (%, negative = inhibition) at 1uM” value is -0.41%.

`c1ccc(-c2cncnc2)cc1`: the “hERG current change (%, negative = inhibition) at 1uM” value was found to be 7.98%.

For the compound `CCC(C)c1nc2ccsc2c(N2CCOC2=O)c1-c1ccccc1` (centres unmarked), the “hERG current change (%, negative = inhibition) at 1uM” value is recorded as -5.54%.

Regarding `CCCCC(=O)N1CC(=O)Nc2ccc(F)cc2C1c1ccccc1` (centres unmarked), the “hERG current change (%, negative = inhibition) at 1uM” value is listed as 8.61%.

As for `Cc1cccc(-n2c(C)cc(/C=N/NC(=O)c3cccc([N+](=O)[O-])c3C)c2C)c1`, the “hERG current change (%, negative = inhibition) at 1uM” value stood at 18.7%.

On to `CC(=O)c1ccc(N2Cc3ccccc3/C2=N\C(=O)Nc2ccc(Cl)cc2)cc1`, for which the “hERG current change (%, negative = inhibition) at 1uM” value is listed as -0.961%.

`NC(=S)N/N=C/c1ccc(-c2cc(Cl)cc(Cl)c2)o1`: the “hERG current change (%, negative = inhibition) at 1uM” value is given as 8.65%.

For the compound `COc1ccc(-c2nn(-c3ccccc3)cc2/C=C(\C#N)C(N)=O)cc1[N+](=O)[O-]`, the “hERG current change (%, negative = inhibition) at 1uM” value was 28%.

For `S=C(N/N=C/c1ccc2ncccc2c1)Nc1cccnc1`, the “hERG current change (%, negative = inhibition) at 1uM” value is listed as 8.67%.

Regarding `COC(=O)CN1C(=O)C2(C(C#N)=C(N)Oc3ccccc32)C2=C1CC(C)(C)CC2=O` (centres unmarked), the “hERG current change (%, negative = inhibition) at 1uM” value is recorded as 9.96%.

For `O=C(Nc1cc(Cl)ccc1F)c1ccc(-n2cncn2)c([N+](=O)[O-])c1`, the “hERG current change (%, negative = inhibition) at 1uM” value was -9.27%.

For the compound `O=S(=O)(NC1CC1)c1ccc2c3c(cccc13)CC2`, the “hERG current change (%, negative = inhibition) at 1uM” value was determined as 6.76%.

For `CCOC(=O)c1ccc(NC(=O)C2CCCN(S(=O)(=O)c3ccc(F)cc3)C2)cc1` (centres unmarked), the “hERG current change (%, negative = inhibition) at 1uM” value was -1.38%.

Consider `CC1(C)C(C=C(Cl)Cl)C1C(=O)N1CCN(c2ccccc2)CC1` (centres unmarked), for which the “hERG current change (%, negative = inhibition) at 1uM” value is reported as 0.423%.

For the compound `Cc1ccc(NC(=O)C2CC(=O)N(c3ccc4c(c3)OCCO4)C2)nc1` (centres unmarked), the “hERG current change (%, negative = inhibition) at 1uM” value amounted to 9.18%.

As to `CN(C)C(=O)c1ccc(-n2nc(C(F)(F)F)c3c2CCCC3)cc1`, the “hERG current change (%, negative = inhibition) at 1uM” value is given as -1.45%.

In the case of `CCCn1c(C(C)Nc2nc(-c3ccc(C)cc3)cs2)nc2ccccc21` (centres unmarked), the “hERG current change (%, negative = inhibition) at 1uM” value was determined as 16.8%.
